Source: US4795826A, “Ortho-phenylenediamine compounds” (priority 1986, dated 1989)

Key:
P388 leukemia = P388 leukemia in vivo (increase in lifespan of mice, i.p. tumour); conditions: days 1, 5 and 9 after tumor inoculation, in 0.1 ml of 30% v/v ethyl alcohol in water, as soluble acid addition salt
Lewis lung carcinoma = Lewis lung carcinoma in vivo (increase in lifespan of mice, i.v. tumour); conditions: days 1, 5 and 9 after tumor inoculation, in 0.1 ml of 30% v/v ethyl alcohol in water, as soluble acid addition salt

Structure (SMILES)	OD (optimal drug dose) (P388 leukemia)	OD (optimal drug dose) (Lewis lung carcinoma)
CNc1cc(NS(C)(=O)=O)ccc1Nc1c2ccccc2nc2cc(NC(=O)OC)ccc12 [Compound 11]	13.3 milligrams per kilogram	
CNc1cc(NS(C)(=O)=O)ccc1Nc1c2ccccc2nc2c(C)cccc12 [Compound 12]	13.3 milligrams per kilogram	13.3 milligrams per kilogram
CNc1cc(NS(C)(=O)=O)ccc1Nc1c2ccc(Cl)cc2nc2c(C)cccc12 [Compound 19]	13.3 milligrams per kilogram	
CNc1cc(NS(C)(=O)=O)ccc1Nc1c2ccc(Br)cc2nc2c(C)cccc12 [Compound 21]	13.3 milligrams per kilogram	
CNc1cc(NS(C)(=O)=O)ccc1Nc1c2ccc(C)cc2nc2c(OC)cccc12 [Compound 22]	13.3 milligrams per kilogram	
CNC(=O)c1cccc2c(Nc3ccc(NS(C)(=O)=O)cc3NC)c3cccc(C)c3nc12 [Compound 24]	13.3 milligrams per kilogram	
CNc1cc(NC(=O)OC)ccc1Nc1c2ccccc2nc2c(C)cccc12 [Compound 58]	13.3 milligrams per kilogram	
